# From PubChem BioAssay AID1671189 (National Center for Advancing Translational Sciences (NCATS), 2021)
# The whole screen tested about 1,100 compounds, of which about 70 (6%) were called active. Another 22% or so got no clear call; they are omitted. The call rests on the fitted dose curve; in most records, active means well fitted curve in the direction sought with a large enough effect; inconclusive means small, poorly fitted or top-dose-only effect, or another doubt; inactive means no such curve, though single readings can be large or run the other way. The list shows a part of the results.
# Target: Polyunsaturated fatty acid lipoxygenase ALOX12 (Homo sapiens) (UniProt P18054)
# Test: Confirmatory qHTS assay for inhibitors of human arachidonate 12S-lipoxygenase (ALOX12): Round 2
# Conditions: purified human 12-LOX, xylenol orange absorbance; series mostly up to 125 µM; activity change, negative = inhibition: at the top concentration
# In short: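 Purified human enzyme (150 nM) in 25 mM Hepes, 0.01% Triton X-100, pH 7.0, preincubated 15 min with compound, then 40 uM arachidonic acid for 30 min at room temperature. Hydroperoxide detected by Fe-XO, read as 573/405 nm absorbance ratio.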
# On the % scale 0 is the no-effect control and ±100 the full control effect; potency means the concentration at half of the fitted maximal effect.
# Chain of UniProt P18054 (P18054 whole entry, looked up): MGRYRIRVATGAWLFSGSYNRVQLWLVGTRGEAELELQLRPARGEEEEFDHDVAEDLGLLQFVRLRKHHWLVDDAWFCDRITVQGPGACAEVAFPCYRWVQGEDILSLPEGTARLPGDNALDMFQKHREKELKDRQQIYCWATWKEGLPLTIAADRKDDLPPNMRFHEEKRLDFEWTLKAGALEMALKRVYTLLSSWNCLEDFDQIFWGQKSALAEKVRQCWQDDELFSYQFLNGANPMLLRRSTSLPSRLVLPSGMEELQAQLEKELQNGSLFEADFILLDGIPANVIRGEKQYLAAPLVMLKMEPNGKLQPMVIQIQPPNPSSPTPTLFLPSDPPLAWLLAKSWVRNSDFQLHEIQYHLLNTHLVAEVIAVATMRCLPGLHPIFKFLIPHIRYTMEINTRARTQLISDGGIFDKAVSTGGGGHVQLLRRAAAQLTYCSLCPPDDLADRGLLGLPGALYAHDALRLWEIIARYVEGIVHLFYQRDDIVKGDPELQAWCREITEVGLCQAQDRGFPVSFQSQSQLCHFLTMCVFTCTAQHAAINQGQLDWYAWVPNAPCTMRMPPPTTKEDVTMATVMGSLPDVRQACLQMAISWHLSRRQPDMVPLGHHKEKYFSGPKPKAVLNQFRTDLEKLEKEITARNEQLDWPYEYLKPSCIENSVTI
SMILES,"activity change, negative = inhibition",Potency
CC(=O)N1CCCN(c2ncc(S(C)(=O)=O)c(C3CCCNC3)n2)CC1 (configuration not stated),inactive: -27.9% [at 64.5 µM],
CC(=O)N1CCN(c2ccc(Cl)nn2)C(=O)C1,inactive: -18.9%,
NC(C(=O)N1CCC2(CC1)CN(C(=O)Cc1cccc(Cl)c1)CCO2)c1ccccc1 (configuration not stated),inactive: -4.66%,
CN1CC(=O)N(c2ccc(Cl)cc2)Cc2c(NC3CCNCC3)ncnc21,inactive: -20.9%,
C=CCN(C)C(=O)[C@@H](C)C1CC[C@@]2(C)Cc3sc(NC(=O)C4CC4)nc3[C@@H](C)[C@@H]2[C@H]1O (some centres not stated),inactive: 15.5% [at 64.5 µM],
O=C(c1cc(C2CC2)nc2onc(C3CCCNC3)c12)N1CCCCC1 (configuration not stated),inactive: -15.8%,
O=C1NCc2ccccc2CC12CCN(Cc1ccnc3ccccc13)CC2,inactive: -20.7%,
CN1CC(=O)N(C2CCNCC2)Cc2c1ncnc2N1CCc2ccccc2C1,inactive: -19%,
CNc1oc(-c2ccc3cc[nH]c3c2)nc1C#N,inactive: 6.32% [at 64.5 µM],
CC1Oc2ccc(NC(=O)c3ccc(F)cc3)cc2CN(Cc2ccc3c(c2)OCO3)C1=O (configuration not stated),inactive: -13.2% [at 64.5 µM],
CN(C)C(=O)N1CCn2c(nnc2-c2cncc(Br)c2)C1,inactive: -24.9%,
CN1CC(=O)N(C2CCCNCC2)Cc2c1ncnc2N1CCCC(O)C1 (configuration not stated),inactive: -10.7%,
CCCC(=O)N1Cc2ccccc2CC2(CCCCN2Cc2ccccn2)C1 (configuration not stated),inactive: 53.3%,
Cc1ccc(-c2ncc(C(=O)Nc3ccc(F)cc3C)c(-c3ccncc3)n2)cc1,inactive: -15.8% [at 64.5 µM],
NCCc1n[nH]c(=O)n1-c1ccc(Cl)cc1,inactive: -0.16% [at 64.5 µM],
CN1CC(=O)N(C2CCCC2)Cc2c(NC3CCNCC3)ncnc21,inactive: -27%,
O=C(c1ccc(C(F)(F)F)cc1)N1CC(Oc2ccc3c(c2)OCO3)C1,inactive: -18.7%,
C[S+](=O)([O-])N1CC2ON=C(C(=O)NCCc3ccc(Cl)cc3)C2C1 (configuration not stated),inactive: -10.9%,
COc1ccc(-c2cc(-c3cccc(CO)c3)cn3cncc23)cc1,,active: 28.2 µM
Cc1ccc(-c2cc(-c3ccc(C)o3)nc(N)c2C#N)cc1,,active: 3.06 µM
O=C1NCc2ccccc2CC12CCCN2Cc1cnc2ccccc2c1 (configuration not stated),inactive: -20.5%,

SMILES,"activity change, negative = inhibition",Potency
O=c1c(CCc2ccccc2)nc2cnc(Oc3ccccc3)nc2n1C1CC1,inactive: -21.2%,
CN(C)c1ccc(CN2CCn3c(nn(-c4ccc(Cl)cc4)c3=O)C2)cc1,inactive: -26.9%,
CCOC(=O)C1=C(C)N=C2SC=C(CC(=O)NCc3ccco3)N2C1c1cccc([N+](=O)[O-])c1 (configuration not stated),inactive: -3.42% [at 64.5 µM],
c1cc2c(cc1OC1CN(CC3CCCCC3)C1)OCO2,inactive: -23.2%,
COc1ccc(-c2cn(C)c(=O)n3cc(COc4ccc(C(=O)O)cc4)nc23)c(C)c1,inactive: -13.1% [at 64.5 µM],
CN1CCC2(Cc3ccccc3CN(C(=O)CCN)C2)C1 (configuration not stated),inactive: -19.4%,
CN1CC(=O)N(C2CCNCC2)Cc2c(NC3CCCCC3)ncnc21,inactive: -13%,
COc1ccc(CNc2ncnc3c2CN(C2CCNCC2)C(=O)CN3C)cc1OC,inactive: -22.9%,
CS(=O)(=O)N1CCn2cc(C(=O)Nc3ccc(Cl)cc3Cl)nc2C1,inactive: -2.96%,
O=C(NCCc1c[nH]c2ccccc12)c1ccccc1C1CCNC1 (configuration not stated),inactive: -9.82% [at 64.5 µM],
COCc1nc(NCCCc2c(C)noc2C)cc(C2CC(N)C2)n1 (configuration not stated),inactive: -7.49% [at 64.5 µM],
CCOC(=O)C1CCN(C(=O)c2cc(Cn3ccnc3C(C)C)[nH]n2)CC1,inactive: -9.77% [at 64.5 µM],
COc1ccc(-c2cc3nccn3c(Nc3ncccc3C(N)=O)n2)cc1OC,inactive: -15%,
O=C1NCc2ccccc2CC12CCN(Cc1c[nH]c3ccccc13)CC2,inactive: -25.1%,
CNc1oc(-c2cccc(Cl)c2Cl)nc1C#N,inactive: -0.907% [at 64.5 µM],
CC(=O)N1CCC2(CC1)CN(C(=O)Cc1csc(N)n1)Cc1ccccc1O2,inactive: 0.398%,
O=C(c1cc(C2CC2)nc2onc(C3CCNCC3)c12)N1CCCCC1,inactive: -14%,
CN1CC(=O)N(C2CCCNCC2)Cc2c1ncnc2N1CCCC(F)C1 (configuration not stated),inactive: -9.99%,
CCOc1cccc(CN2CCCC23Cc2ccccc2CNC3=O)c1 (configuration not stated),inactive: -19.3%,
O=C1NCc2ccccc2CC12CCCN(Cc1ccc(F)cc1O)C2 (configuration not stated),inactive: -4.98%,
O=C(NC1CC1)c1cc(C2CC2)nc2onc(C3CCNC3)c12 (configuration not stated),inactive: -17.6%,
